A collection of fitness landscapes (doi:10.1016/j.celrep.2020.107928)
The full ranking holds about 81,000 sequences; the median of “one-hybrid fitness for binding NBS DNA” is about -0.1, and the highest 2% start at about 0.36. This is one part of the list.

B1: Caulobacter ParB omega fusion; a variant is named by its letters at X, in order, B8GW30 (parent)
chain: MESVVVGEPGMSEGRRGLGRGLSALLGEVDAAPAQAPGEQLGGSREAPIEILQRNPDQPRRTFREEDLEDLSNSIREKGVLQPILVRPSPDTAGEYQIVAGERAWRAAQRAGLKTVPIMVRELDDLAVLEIGIIENVQRADLNVLEEALSYKVLMEKFERTQENIAQTIGKSXSHVANXMRLLXLPDEVQSYLVSGELTAXHARAIAAAADPVALAKQIIEGGLSVRETEALARKAPNLSAGKSKGGRPPRVKDTDTQALESDLSSVLGLDVSIDHRGSTGTLTITYATLEQLDDLCNRLTRGI

Variants of: B1
Test: one-hybrid fitness for binding NBS DNA (the Noc-binding site; scaled: cognate 1, non-cognate 0); higher = stronger binding
Settings: with NBS DNA site
Summary of the method: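 On M9-minus-histidine containing 0.1 mM IPTG and 5 mM 3-AT, E. coli USO cells with a HIS3 reporter, site 19 bp from the promoter, grew 48 hours at 37°C to select Caulobacter ParB libraries randomised at four specificity codons. Plasmids from before and after were Illumina-sequenced, with three replicate libraries pooled and variants under 10 reads left out. Fitness is the log change in variant-to-wild-type read ratio, rescaled against cognate and non-cognate.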

Variant	one-hybrid fitness for binding NBS DNA
CGEE	≤ 0.2
WRMG	≤ 0.2
SGGG	≤ 0.2
RWVC	≤ 0.2
DARA	≤ 0.2
IYWI	≤ 0.2
PYRH	≤ 0.2
SKSL	≤ 0.2
RWSG	≤ 0.2
RYFA	≤ 0.2
RQSS	0.446
IPPL	≤ 0.2
VLHL	≤ 0.2
DSHT	≤ 0.2
ACGI	≤ 0.2
AEFL	≤ 0.2
VQKR	0.293
SYSP	≤ 0.2
LMNS	≤ 0.2
HTQE	≤ 0.2
SPMF	≤ 0.2
NSYN	≤ 0.2
FTRC	≤ 0.2
RAIY	≤ 0.2

Variant	one-hybrid fitness for binding NBS DNA
PRYW	≤ 0.2
AYML	≤ 0.2
LWVW	≤ 0.2
HNPS	≤ 0.2
KIPY	≤ 0.2
RAWR	0.248
YMHR	≤ 0.2
RKTI	≤ 0.2
SNHW	≤ 0.2
SYTC	≤ 0.2
MMMF	≤ 0.2
RYVS	0.218
WWSS	≤ 0.2
SFRH	≤ 0.2
TEAN	≤ 0.2
VVSF	≤ 0.2
RRDN	≤ 0.2
WIWV	≤ 0.2
RMHH	≤ 0.2
QPGK	≤ 0.2
QAIS	≤ 0.2
TVIR	≤ 0.2
GMEL	≤ 0.2
INNR	≤ 0.2

Variant	one-hybrid fitness for binding NBS DNA
HKRL	≤ 0.2
PGSD	≤ 0.2
EPTG	≤ 0.2
GLTI	≤ 0.2
LHNP	≤ 0.2
GQDQ	≤ 0.2
MERM	≤ 0.2
WFSL	≤ 0.2
PWPM	≤ 0.2
IINS	≤ 0.2
SDKY	≤ 0.2
MHDS	≤ 0.2
EQFS	≤ 0.2
ESEG	≤ 0.2
PFRK	≤ 0.2
MCGW	≤ 0.2
VRAN	≤ 0.2
MTGV	≤ 0.2
GLYH	≤ 0.2
IYSP	≤ 0.2
PDKS	≤ 0.2
NKTR	≤ 0.2
QDTR	≤ 0.2
YGVD	≤ 0.2

Variant	one-hybrid fitness for binding NBS DNA
EIKT	≤ 0.2
RYMP	≤ 0.2
IPQS	≤ 0.2
LCTV	≤ 0.2
RPFI	≤ 0.2
VLIS	≤ 0.2
GLYI	≤ 0.2
AFIR	≤ 0.2
YHPI	≤ 0.2
QCMY	≤ 0.2
FQLA	≤ 0.2
HSAP	≤ 0.2
RKAE	≤ 0.2
IPRS	≤ 0.2
RASQ	≤ 0.2
PFTV	≤ 0.2
LVYI	≤ 0.2
KKHG	≤ 0.2
EFPK	≤ 0.2
WHTR	≤ 0.2
SHVV	≤ 0.2
YDSA	≤ 0.2
PDLD	≤ 0.2
GPMQ	≤ 0.2

Variant	one-hybrid fitness for binding NBS DNA
QPWT	≤ 0.2
KGTN	≤ 0.2
QMEV	≤ 0.2
WYYL	≤ 0.2
LEDG	≤ 0.2
HTAA	≤ 0.2
QFWF	≤ 0.2
DGVR	≤ 0.2
NDCS	≤ 0.2
QQNT	0.596
QGAH	≤ 0.2
TNAG	≤ 0.2
YPRM	≤ 0.2
TFAI	≤ 0.2
VWSN	≤ 0.2
YTTC	≤ 0.2
MYGR	≤ 0.2
SKVQ	≤ 0.2
SPNV	≤ 0.2
IARE	≤ 0.2
AHVE	≤ 0.2
FHTC	≤ 0.2
VKQS	≤ 0.2
DAYR	≤ 0.2

Variant	one-hybrid fitness for binding NBS DNA
TQCI	≤ 0.2
KCTS	≤ 0.2
QLFT	0.289
QSPV	≤ 0.2
MKRR	≤ 0.2
WFRS	≤ 0.2
KRNE	≤ 0.2
PTCE	≤ 0.2
WHMR	≤ 0.2
AGDA	≤ 0.2
VEAC	≤ 0.2
MEPY	≤ 0.2
PFSC	≤ 0.2
DQLT	≤ 0.2
CPIC	≤ 0.2
QKNM	≤ 0.2
RWMK	≤ 0.2
LPKH	≤ 0.2
VHGT	≤ 0.2
LEEG	≤ 0.2
TGNW	≤ 0.2
IGLI	≤ 0.2
MMNF	≤ 0.2
EKPR	≤ 0.2

Variant	one-hybrid fitness for binding NBS DNA
CMRW	≤ 0.2
VPVV	≤ 0.2
HYCT	≤ 0.2
RWPL	≤ 0.2
IEGT	≤ 0.2
SANF	≤ 0.2
HRCK	≤ 0.2
SSFF	≤ 0.2
QSPC	≤ 0.2
LHRQ	≤ 0.2
MILE	≤ 0.2
NVRM	≤ 0.2
LEQS	≤ 0.2
TMQT	≤ 0.2
MSGR	≤ 0.2
TFRN	≤ 0.2
IYDK	≤ 0.2
FGNS	≤ 0.2
TYWC	≤ 0.2
FVRV	≤ 0.2
WTSG	≤ 0.2
MMWR	≤ 0.2
LAVN	≤ 0.2
DDCS	≤ 0.2

Variant	one-hybrid fitness for binding NBS DNA
PGRH	≤ 0.2
TCSN	≤ 0.2
FNFV	≤ 0.2
ITSV	≤ 0.2
PEMV	≤ 0.2
LHRK	≤ 0.2
TDTE	≤ 0.2
RKHF	≤ 0.2
DRMS	≤ 0.2
WAPI	≤ 0.2
VRKS	0.309
RVTI	≤ 0.2
GCTS	≤ 0.2
PSDG	≤ 0.2
MGDS	≤ 0.2
ARHA	≤ 0.2
LLRF	≤ 0.2
PLSV	≤ 0.2
TQEC	≤ 0.2
VRTL	≤ 0.2
DADM	≤ 0.2
NVEG	≤ 0.2
LGRQ	≤ 0.2
CRGV	≤ 0.2

Variant	one-hybrid fitness for binding NBS DNA
RDLW	≤ 0.2
GNQR	≤ 0.2
RCGV	≤ 0.2
NHLT	≤ 0.2
NAMT	≤ 0.2
IFCS	≤ 0.2
TMIR	≤ 0.2
KHHF	≤ 0.2
GHCS	≤ 0.2
GCPK	≤ 0.2
DHGG	≤ 0.2
VGIT	≤ 0.2
GILG	≤ 0.2
APNN	≤ 0.2
PHGT	≤ 0.2
CVLI	≤ 0.2
DKAD	≤ 0.2
PNRG	≤ 0.2
YHDR	≤ 0.2
LQTA	≤ 0.2
NWTR	≤ 0.2
RILM	≤ 0.2
TVRD	≤ 0.2
TGTI	≤ 0.2

Variant	one-hybrid fitness for binding NBS DNA
MVNC	≤ 0.2
WGKM	≤ 0.2
TESM	≤ 0.2
YKSY	≤ 0.2
SRTL	≤ 0.2
IYRS	≤ 0.2
PFVT	≤ 0.2
NKNV	≤ 0.2
NLNL	≤ 0.2
HREW	≤ 0.2
DNSE	≤ 0.2
HGSI	≤ 0.2
CQNC	≤ 0.2
AGTK	≤ 0.2
MYYS	≤ 0.2
YMHA	≤ 0.2
THIR	≤ 0.2
HVGS	≤ 0.2
VDMT	≤ 0.2
KVWM	≤ 0.2
QKVG	≤ 0.2
YLTS	≤ 0.2
LYER	≤ 0.2
QRDW	≤ 0.2

Variant	one-hybrid fitness for binding NBS DNA
TTRA	≤ 0.2
FPVS	≤ 0.2
WRHT	≤ 0.2
RQCS	0.278
QICW	≤ 0.2
CEKE	≤ 0.2
NPIH	≤ 0.2
HFKC	≤ 0.2
CVGR	≤ 0.2
TIQI	≤ 0.2
QMIE	≤ 0.2
YSDV	≤ 0.2
RQSF	≤ 0.2
VASI	≤ 0.2
RAIF	≤ 0.2
HEGR	≤ 0.2
CIQS	≤ 0.2
PWYI	≤ 0.2
QSWY	≤ 0.2
WAPR	≤ 0.2
PWAW	≤ 0.2
LQGM	≤ 0.2
SLST	≤ 0.2
QDGL	≤ 0.2

Variant	one-hybrid fitness for binding NBS DNA
INIY	≤ 0.2
CLGA	≤ 0.2
RMAL	≤ 0.2
DRMR	≤ 0.2
VLYW	≤ 0.2
QRRI	0.43
RDIR	≤ 0.2
AADE	≤ 0.2
ERLC	≤ 0.2
QEWA	≤ 0.2
WGVG	≤ 0.2
LITE	≤ 0.2
TNNR	≤ 0.2
SAKS	≤ 0.2
FAGV	≤ 0.2
PIYV	≤ 0.2
MLHK	≤ 0.2
LTKF	≤ 0.2
VSRT	≤ 0.2
KTWL	≤ 0.2
PQPK	≤ 0.2
HTCT	≤ 0.2
LGNC	≤ 0.2
DYSG	≤ 0.2

Variant	one-hybrid fitness for binding NBS DNA
ITLR	≤ 0.2
YKPV	≤ 0.2
QRLW	0.215
ASLY	≤ 0.2
PYSF	≤ 0.2
QCMA	0.303
EGMD	≤ 0.2
TIEM	≤ 0.2
SCAA	≤ 0.2
NDER	≤ 0.2
RYFD	≤ 0.2
QCGD	≤ 0.2
YRCR	≤ 0.2
RIIP	≤ 0.2
LMSC	≤ 0.2
EVDG	≤ 0.2
TTGE	≤ 0.2
DTRV	≤ 0.2
